Experimental data reported in PubChem BioAssay AID1159614 (National Center for Advancing Translational Sciences (NCATS), 2016).
The campaign covered roughly 45,000 compounds. About 65 (0.1%) were called active. Calls come from the whole dose curve; as a rule, active = well fitted activation curve with a large enough effect; inconclusive = small, poorly fitted or top-dose-only effect; inactive = no such curve, though single readings can be large or run the other way. The list shows a part of the results.

biological target: Galactocerebrosidase (Homo sapiens) (UniProt P54803); assay: A Novel Cell-Based Assay to Identify Small Molecules for B -Galactocerebrosidase; conditions: 145M-Twi-hGALC-G270D cells (Twitcher mouse brain line with human GALC G270D), HMU-beta-Gal fluorescence, 48 h; series mostly up to 57.5 µM; activation: at the top concentration; note: 0% is about no effect; nearly all actives have a fitted effect of over 65% in size
Chain of UniProt P54803 (P54803 whole entry, looked up): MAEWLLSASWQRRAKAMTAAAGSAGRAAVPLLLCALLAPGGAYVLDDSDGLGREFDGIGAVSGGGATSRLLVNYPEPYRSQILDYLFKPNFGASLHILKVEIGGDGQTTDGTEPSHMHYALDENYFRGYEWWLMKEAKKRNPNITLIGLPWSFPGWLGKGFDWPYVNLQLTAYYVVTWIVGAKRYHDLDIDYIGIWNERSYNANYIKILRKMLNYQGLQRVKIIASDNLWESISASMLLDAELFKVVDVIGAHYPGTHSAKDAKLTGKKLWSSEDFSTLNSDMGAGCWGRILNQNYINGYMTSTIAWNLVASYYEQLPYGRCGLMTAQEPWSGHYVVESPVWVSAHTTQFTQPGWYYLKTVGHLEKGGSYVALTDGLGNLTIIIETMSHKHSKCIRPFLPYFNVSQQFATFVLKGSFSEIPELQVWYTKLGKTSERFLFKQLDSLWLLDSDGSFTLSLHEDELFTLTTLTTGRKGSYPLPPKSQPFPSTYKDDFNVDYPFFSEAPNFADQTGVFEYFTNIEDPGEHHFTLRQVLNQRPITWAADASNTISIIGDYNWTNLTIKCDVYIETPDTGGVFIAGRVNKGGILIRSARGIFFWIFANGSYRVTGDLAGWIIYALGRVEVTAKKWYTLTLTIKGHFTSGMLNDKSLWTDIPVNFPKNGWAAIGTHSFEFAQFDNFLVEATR
Outline: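 Live 145M-Twi cells (Twitcher mouse brain-derived, GALC-null) stably expressing human GALC-G270D, with a wild-type GALC line, were compound-treated. Residual GALC activity was then read as fluorescence from 0.1 mM final HMU-β-gal at pH 5.2; higher signal means activation.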

activation, inactive:
COc1ccc(-c2noc(C3CC(=O)N(c4cc(C)cc(C)c4)C3)n2)cc1 (stereo not drawn) -12%, CN(C(=O)CSc1cn(CC(=O)N2CCCCC2)c2ccccc12)c1ccccc1 -9.75%, CCc1nn(CC(=O)Nc2cccc(C)c2C)c(=O)c2cc3sccc3n12 -37%, CCOC(=O)c1c(C)c(C(=O)NCCc2ccc(OC)cc2)c(C)n1C -16.1%, Cc1ccc(CCNC(=O)C2CCCN(Cc3nc(-c4cccc(Cl)c4)oc3C)C2)cc1 (stereo not drawn) -22.7%, CC1=C(C(=O)Nc2ccc(Cl)cc2)C(C(C)C)n2nc(SCc3cccc(C)c3)nc2N1 (stereo not drawn) -11.1%, CN1CCN(CCCNC(=O)c2cnn(-c3ccccc3)c2C2CCN(C(=O)OC(C)(C)C)CC2)CC1 -1%, CCC(C)NC(=O)c1ccc2c(c1)N(Cc1ccccc1)C(=O)c1ccccc1S2(=O)=O (stereo not drawn) -1.44%, Cc1ccc2nc(-c3ccccn3)c(Nc3ccc(F)cc3)n2c1 -13.4%, CCC(Oc1ccccc1)C(=O)Nc1ccccc1OCc1cc(=O)n2ccccc2n1 (stereo not drawn) -13%, COc1cccc(-n2ccnc2SCC(=O)Nc2cccc(C)c2C)c1 -14.5%, COc1ccc(-c2nc3c(C#N)c[nH]n3c2NC2CCCCC2)c(OC)c1 -11.7%, COc1ccc(-n2ncc(C(=O)NCc3ccccc3)c2C2CCN(C(=O)OC(C)(C)C)CC2)cc1 -5.94%, CCc1ccc(NC(=O)Cn2cnc3sc(C)c(S(=O)(=O)N4CCC(C)CC4)c3c2=O)cc1 -1.14%, CCCC(=O)NCC(c1ccc2c(c1)OCO2)N1CCN(c2ccc(F)cc2)CC1 (stereo not drawn) -9.46%, CCOc1ccccc1CNC(=O)Nc1cn(CC(C)C)c(=O)c2ccccc12 -23.3%, Cc1ccc(OCc2nc3ccccc3n2CC(C)C)cc1 -14.2%, COc1ccc(CCNC(=O)CCn2c(=O)c3cccn3c3ccc(F)cc32)c(OC)c1OC -16.7%, CCCN(C(=O)c1cc2c(s1)-c1ccccc1SC2)c1ccccc1F -8.91%, COc1ccc(N(CC(=O)NC(C)c2ccccc2)S(=O)(=O)c2c(C)noc2C)cc1 (stereo not drawn) -9.64%, Cc1ccc(CN2CCC(CNc3ncnc4onc(-c5ccc(Cl)cc5)c34)CC2)cc1 -13.1%, CC1(c2ccc(Cl)cc2)CC(C)(C)N(C(=O)c2ccccc2)c2ccccc21 (stereo not drawn) 1.88%, CC(Oc1ccccc1)C(=O)Nc1nc2ccc(S(N)(=O)=O)cc2s1 (stereo not drawn) -15.4%, Cc1cc2c(cc1S(=O)(=O)NCc1ccc(N(C)C)cc1)OCC(=O)N2 -13.5%, CC(C)(C)NS(=O)(=O)c1ccc2nc(NC(=O)c3cccnc3)sc2c1 -10.5%, COC(=O)CNC(=O)Nc1cc(C(=O)NCc2ccc(C)cc2)ccc1N1CCCC1 -28.8%, CCOC(=O)c1noc2ncnc(N3CCN(c4ccccc4OC)CC3)c12 -3.72%, CCOC(=O)c1c(C)c(-c2ccccc2)n(CC(=O)Nc2cc(OC)cc(OC)c2)c1C 1.9%, COc1cc(C2NC(=O)NC(C)=C2C(=O)Nc2cc(C)cc(C)c2)ccc1O (stereo not drawn) 1.67%, O=C(CSc1nc2ccccc2c2nc(-c3ccccc3)nn12)Nc1ccc(Br)cc1 -16.4%, CC(C)(C)c1cc(C(C)(C)C)c2oc(=O)c(-c3nc4ccccc4[nH]3)cc2c1 -11.7%, CCc1cc(C(=O)Nc2c(C)nn(Cc3ccc(C)cc3)c2C)no1 -8.95%, Cc1ccc(Cn2c(SCC(=O)NCc3ccc(Cl)cc3)nc3ccsc3c2=O)cc1 -27.1%, COc1ccc(C)cc1NC(=O)c1oc2ccc(S(=O)(=O)N(C)C3CCCCC3)cc2c1C -14%, CC(=O)N1c2ccccc2CC1C(=O)N1CCN(c2ccc(F)cc2)CC1 (stereo not drawn) -14.3%, COC(=O)C1CCN(S(=O)(=O)c2cc3c4c(c2)C(C)C(=O)N4CCC3)CC1 (stereo not drawn) -7.7%, O=C(Nc1ccc(F)cc1F)c1ccc(CN2CC(=O)N3CCCCC3C2=O)cc1 (stereo not drawn) -3.36%, COc1cccc(N2CCN(C(=O)C3CCC(CNS(=O)(=O)c4ccc(Br)s4)CC3)CC2)c1 (stereo not drawn) -33.6%, Cc1ccc(NC(=O)CN2CCCN(Cc3cc(C)ccc3C)S2(=O)=O)c(Cl)c1 0.862%, CCS(=O)(=O)N1CC(=O)N(c2ccccc2C)C(C)(C(=O)NC2CCCCC2)C1 (stereo not drawn) -10.5%, COCCCNC(=O)Cn1c(=O)n(-c2ccc(C)cc2)c(=O)c2c1c1cc(C)ccc1n2C 1.78%, CN(C)c1ccc(C(CNC(=O)COc2ccc(Cl)cc2)N2CCOCC2)cc1 (stereo not drawn) -20.1%, Cc1ccc(Cl)cc1N1CCN(C(=O)c2cn(C3CCCCC3)c(=O)c3c2c2ccccc2n3C)CC1 -23.6%, COc1ccc(NC(=O)CSc2nnc(-c3ccc(C)cc3)o2)cc1 -9.29%, Cc1ccc(NC(=O)c2cc(S(=O)(=O)N3CCOCC3)c(Cl)cc2Cl)cc1 -2.75%, COCCNC(=O)CCC(=O)NNc1nc2ccccc2c2nc(-c3ccccc3)nn12 -16.7%, CCOc1ccc(NC(=O)CSc2ncc3c(n2)-c2ccccc2N(C)S3(=O)=O)cc1 -7.05%, Clc1ccccc1-c1nc(Nc2ccccc2)nc2ccc(Br)cc12 -5.15%, Cc1ccc(NC(=O)N2CCC(n3c(C)nc4cccnc43)CC2)c(Cl)c1 -13.5%, CCC(Oc1ccccc1)C(=O)Nc1nnc(S(=O)(=O)Nc2ccccc2)s1 (stereo not drawn) -18.7%, CCc1ccc(CNC(=O)c2ccc(CSc3nc4ccncc4n3Cc3ccccc3)cc2)cc1 -5.19%, COc1ccc(CNC(=O)Nc2cn(CC(C)C)c(=O)c3ccccc23)c(OC)c1 -17.3%, Cc1cc(C)cc(NC(=O)C2CCN(S(=O)(=O)c3cccc4nonc34)CC2)c1 -10.7%, Nc1c2c(nc3ccccc13)CCCC2 -15.8%, CCCCC(CC)COC(=O)C(C#N)=C(c1ccccc1)c1ccccc1 (stereo not drawn) -11.9%, CC(=O)c1ccc(N2CCN(C(=O)NCc3noc4ccc(C)cc34)CC2)cc1 -8.18%, COC(=O)CCc1sc(Nc2ccc(OC)cc2)nc1-c1ccc(OC)cc1 -9.27%, Cc1ccccc1NC(=O)CC1C(=O)NCCN1C(=O)c1cccc(Cl)c1 (stereo not drawn) -10.7%, Cc1noc(-c2ccccc2OCC(=O)Nc2cccc([N+](=O)[O-])c2)n1 -7.92%, CCN1c2ccccc2-c2nc(SCC(=O)Nc3ccc(C)c(Cl)c3)ncc2S1(=O)=O -2.17%, CCOC(=O)c1ccccc1NC(=O)CSc1nc2ncccc2[nH]1 -3.65%, COc1ccc(-c2nnn3c2nc(N2CCCC(C)C2)c2ccccc23)cc1 (stereo not drawn) -0.473%, Cc1ccc(C)c(N(C)C(=O)C2CCN(S(=O)(=O)c3cccc4nsnc34)CC2)c1 -8.43%, CC(=O)c1cc(C(=O)Nc2cccc(C)c2)c2ccccn12 -12.7%, COc1ccc(N2CCN(C(=O)CCS(=O)(=O)c3cc4c(cc3Cl)NC(=O)CO4)CC2)cc1 -12.8%, CCOC(=O)C1CCCN(S(=O)(=O)c2ccc3[nH]c(=O)ccc3c2)C1 (stereo not drawn) -7.56%, Cc1ccc(S(=O)(=O)NCc2nc3nc(C)cc(C)n3n2)c(C)c1 5.26%, O=c1c2sc3ccccc3c2n(Cc2ccccc2)c(=O)n1Cc1ccccc1 -8.89%, CCOc1ccc(CNC(=O)c2ccc3nc(Cc4ccc(OC)cc4)oc3c2)cc1OC -15.3%, Cc1ccc2c(CNCCc3ccc(Cl)cc3)c(C(=O)O)n(Cc3ccc(F)cc3)c2c1 -8.67%, CCOC(=O)c1ccc(NC(=O)CC2C(=O)N(c3ccccc3)C(=O)N2Cc2cccs2)cc1 (stereo not drawn) -19.4%, Cc1ccc(S(=O)(=O)c2[nH]c(-c3ccccc3)nc2SCC(=O)O)cc1 -9.04%, COc1ccc(N2CCN(CC(O)COc3ccc(C(C)(C)C)cc3)CC2)cc1 (stereo not drawn) -10.3%, CC(C)Cc1nn2c(=O)cc(COC(=O)c3ccc(NC(=O)c4cccs4)cc3)nc2s1 -8.9%, CCN(C(=O)Cc1c(C(=O)O)[nH]c2ccccc12)c1ccc(OC)cc1 -11.7%, CCC(=O)N1c2ccccc2CC1C(=O)N1CCN(c2ccccc2)CC1 (stereo not drawn) 11.7%, Cc1ccc(Cl)cc1NC(=O)c1ccc(-c2nc(CSc3ccccc3)c(C)o2)cc1 -25.1%, O=S(=O)(NCCc1csc(-c2ccc(F)cc2)n1)c1ccc(Cl)cc1 -14.3%, O=c1c2c3c(sc2nnn1Cc1ccc(Br)cc1)CCCC3 -8.79%, CCOC(=O)c1ccc(NC(=O)CCc2c(C)nc3c(c(C)nn3C)c2C)cc1 -17.3%, CCOc1ccccc1NC(=O)Cn1c(=O)ccc2cc(S(=O)(=O)N3CCC(C)CC3)ccc21 -11.1%, CC(=O)c1ccc(N2CCN(C(=O)C3CCN(S(=O)(=O)c4cccc5nonc45)CC3)CC2)cc1 -5.84%, CC1CCCCN1CCCOC(=O)c1ccc(OC2CCCCC2)cc1 (stereo not drawn) -12.2%, O=C(c1cc2ccccc2oc1=O)N(Cc1cccc(Cl)c1)C1CCS(=O)(=O)C1 (stereo not drawn) -9.92%, COc1ccc(-c2cnc(C)o2)cc1S(=O)(=O)Nc1ccc(C)c(F)c1 5.6%, Cc1ccc(CN2CCSc3ccc(C(=O)N4CCN(c5cccc(C)c5C)CC4)cc32)cc1 -15.1%, O=C(CSc1nccn1Cc1ccc(Cl)cc1)NC1CCCC1 -20%, Cc1ccc(OCCCn2c(C3CC(=O)N(c4cccc(Cl)c4)C3)nc3ccccc32)c(C)c1 (stereo not drawn) -26%, CCOC(=O)C1CCN(C(=O)C2COc3ccccc3C2)CC1 (stereo not drawn) -26.1%, CC(=O)N1CCc2c(sc3c2c(=O)n(Cc2ccccc2)c(=O)n3Cc2ccccc2F)C1 0.434%, O=C(Cc1cccs1)Nc1c(C(=O)Nc2ccc(F)cc2)oc2ccccc12 -11%, CC(C)CN1CCc2nc(Nc3ccc(F)cc3F)ncc2C1 -5.25%, Cc1ccccc1OCC(O)CO (stereo not drawn) -4.12%, COc1cc(/C=C(\C#N)c2nc3ccccc3[nH]2)ccc1OCc1ccccc1F 6.13%, Cc1ccc(-c2onc(C)c2C)cc1S(=O)(=O)N1CCOc2ccc(Cl)cc21 -5.44%, COc1ccc(-n2c(SCC(N)=O)nc3c(oc4ccccc43)c2=O)cc1 -3.35%, CC(C)(C)OC(=O)N1CCc2nc(N3CCN(c4ncccn4)CC3)ncc2C1 -13.9%, CCS(=O)(=O)N1CCc2cc(C(=O)N3CCN(c4ccccc4OC)CC3)ccc21 -9.86%
